The entries are a selection whose mix differs from that of the whole data set. The list includes weakly bound sequences.
Molecular target: T1, GST-Co-NF-kB (UniProt F1ARL5)
T1 sequence: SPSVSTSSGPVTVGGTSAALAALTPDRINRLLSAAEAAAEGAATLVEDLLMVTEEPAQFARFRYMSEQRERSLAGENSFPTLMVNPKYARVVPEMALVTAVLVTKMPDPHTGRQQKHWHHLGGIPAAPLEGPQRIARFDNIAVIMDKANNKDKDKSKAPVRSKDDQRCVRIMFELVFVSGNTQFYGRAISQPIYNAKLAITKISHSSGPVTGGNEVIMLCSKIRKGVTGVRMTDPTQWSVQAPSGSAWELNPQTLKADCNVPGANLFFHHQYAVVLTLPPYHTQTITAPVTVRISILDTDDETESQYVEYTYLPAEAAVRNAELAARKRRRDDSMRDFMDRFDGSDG
Assay: protein-binding microarray (PBM)
Details: PBM: ~300 nM protein, 6 mM HEPES pH 7.8, 80 mM KCl, 0.5 mM EDTA, 0.5 mM EGTA, 6% glycerol, 35 ng/ul poly-dIdC, 1% milk, 1 h, room temperature; high values mean tight binding; double strand, one strand shown

Sequence | binding signal [z-score]
CCGATTAACATCACGTGTTTTCCTGATGTTAATCGGGTCTTGATTCGCTTGACGCTGCTG | 0.177
CCGATTAACATCATAAAAAAAAATGATGTTAATCGGGTCTTGATTCGCTTGACGCTGCTG | -0.34
CCGATTAACATCAGGAAGGCCCCTGATGTTAATCGGGTCTTGATTCGCTTGACGCTGCTG | -0.524
CCGATTAACATCAAAAACTACCCTGATGTTAATCGGGTCTTGATTCGCTTGACGCTGCTG | 3.13
CCGATTAACATCAAAAATTCCATTGATGTTAATCGGGTCTTGATTCGCTTGACGCTGCTG | 0.132
CCGATTAACATCAAAGGATTTCCTGATGTTAATCGGGTCTTGATTCGCTTGACGCTGCTG | -0.133
CCGATTAACATCAACGGGAACTCTGATGTTAATCGGGTCTTGATTCGCTTGACGCTGCTG | 1.78
CCGATTAACATCACGAAAAATCCTGATGTTAATCGGGTCTTGATTCGCTTGACGCTGCTG | -0.623
CCGATTAACATCACCTCTCGCGCTGATGTTAATCGGGTCTTGATTCGCTTGACGCTGCTG | 0.051
CCGATTAACATCAAATATTTTCCTGATGTTAATCGGGTCTTGATTCGCTTGACGCTGCTG | 0.29
CCGATTAACATCAGGGACGTCCCTGATGTTAATCGGGTCTTGATTCGCTTGACGCTGCTG | 1.08
CCGATTAACATCAGGAATTGCCATGATGTTAATCGGGTCTTGATTCGCTTGACGCTGCTG | -0.263
CCGATTAACATCAAAGGAAATTCTGATGTTAATCGGGTCTTGATTCGCTTGACGCTGCTG | 0.387
CCGATTAACATCAAGGGAGTCCCTGATGTTAATCGGGTCTTGATTCGCTTGACGCTGCTG | 1.18
CCGATTAACATCAGGGGGGTAACTGATGTTAATCGGGTCTTGATTCGCTTGACGCTGCTG | 6.37
CCGATTAACATCAGGAAAAATACTGATGTTAATCGGGTCTTGATTCGCTTGACGCTGCTG | 0.908
CCGATTAACATCAAGTACAACGGTGATGTTAATCGGGTCTTGATTCGCTTGACGCTGCTG | 0.0234
CCGATTAACATCATGTGGTTCTCTGATGTTAATCGGGTCTTGATTCGCTTGACGCTGCTG | 0.00892
CCGATTAACATCAGTGAACCACATGATGTTAATCGGGTCTTGATTCGCTTGACGCTGCTG | -0.626
CCGATTAACATCAGAAAATTACATGATGTTAATCGGGTCTTGATTCGCTTGACGCTGCTG | 0.253

Sequence | binding signal [z-score]
CCGATTAACATCACGGAAACCACTGATGTTAATCGGGTCTTGATTCGCTTGACGCTGCTG | 0.747
CCGATTAACATCACGTACATTCCTGATGTTAATCGGGTCTTGATTCGCTTGACGCTGCTG | -0.56
CCGATTAACATCAGTATTTTCCATGATGTTAATCGGGTCTTGATTCGCTTGACGCTGCTG | 0.71
CCGATTAACATCAGGCAAGTCCCTGATGTTAATCGGGTCTTGATTCGCTTGACGCTGCTG | -0.246
CCGATTAACATCAAATTTCCCCATGATGTTAATCGGGTCTTGATTCGCTTGACGCTGCTG | 9.42
CCGATTAACATCAGGCGGTAAGGTGATGTTAATCGGGTCTTGATTCGCTTGACGCTGCTG | -0.02
CCGATTAACATCAGGGAGTACCCTGATGTTAATCGGGTCTTGATTCGCTTGACGCTGCTG | 1.84
CCGATTAACATCAGGAGTTTCCATGATGTTAATCGGGTCTTGATTCGCTTGACGCTGCTG | -0.325
CCGATTAACATCAGTTTTTTCCATGATGTTAATCGGGTCTTGATTCGCTTGACGCTGCTG | 0.422
CCGATTAACATCACGGAAAATACTGATGTTAATCGGGTCTTGATTCGCTTGACGCTGCTG | 0.684
CCGATTAACATCAAAAAACCGTTTGATGTTAATCGGGTCTTGATTCGCTTGACGCTGCTG | -0.127
CCGATTAACATCAGGGAACTCCCTGATGTTAATCGGGTCTTGATTCGCTTGACGCTGCTG | 3.39
CCGATTAACATCACGTAAACTCCTGATGTTAATCGGGTCTTGATTCGCTTGACGCTGCTG | 0.182
CCGATTAACATCACGGGAGTTCCTGATGTTAATCGGGTCTTGATTCGCTTGACGCTGCTG | 1.77
CCGATTAACATCAGGAAACTCCATGATGTTAATCGGGTCTTGATTCGCTTGACGCTGCTG | 0.285
CCGATTAACATCATGGTACTTGTTGATGTTAATCGGGTCTTGATTCGCTTGACGCTGCTG | -0.313
CCGATTAACATCAGTGGTTACCATGATGTTAATCGGGTCTTGATTCGCTTGACGCTGCTG | -0.297
CCGATTAACATCACTGGAATTCCTGATGTTAATCGGGTCTTGATTCGCTTGACGCTGCTG | 0.863
CCGATTAACATCAGGAATTTCTATGATGTTAATCGGGTCTTGATTCGCTTGACGCTGCTG | 0.417

Molecular target: T2, GST-Aq-NF-kB (UniProt A9Y5G7)
T2 sequence: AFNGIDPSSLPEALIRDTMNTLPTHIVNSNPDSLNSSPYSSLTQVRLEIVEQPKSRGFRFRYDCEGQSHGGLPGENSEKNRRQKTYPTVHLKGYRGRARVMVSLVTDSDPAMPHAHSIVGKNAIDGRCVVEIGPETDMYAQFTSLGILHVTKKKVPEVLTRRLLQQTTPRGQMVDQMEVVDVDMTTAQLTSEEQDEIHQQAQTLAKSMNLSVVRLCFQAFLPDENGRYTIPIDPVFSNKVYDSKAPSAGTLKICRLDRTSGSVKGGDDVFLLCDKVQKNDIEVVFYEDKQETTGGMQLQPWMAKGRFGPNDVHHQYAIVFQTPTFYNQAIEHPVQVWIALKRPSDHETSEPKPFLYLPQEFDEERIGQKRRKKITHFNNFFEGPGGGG
Assay: protein-binding microarray (PBM)
Details: PBM: ~300 nM protein, 6 mM HEPES pH 7.8, 80 mM KCl, 0.5 mM EDTA, 0.5 mM EGTA, 6% glycerol, 35 ng/ul poly-dIdC, 1% milk, 1 h, room temperature; Ap Aiptasia and Nv Nematostella (sea anemones) / Co Capsaspora / Aq Amphimedon (sponge) / Dm Drosophila / Hu human; RHD is the Rel homology domain; high values mean tight binding; most listed sequences are background and not binding sites; double strand, one strand shown

Sequence | binding signal [z-score]
CCGATTAACATCACGTGTTTTCCTGATGTTAATCGGGTCTTGATTCGCTTGACGCTGCTG | 0.835
CCGATTAACATCATAAAAAAAAATGATGTTAATCGGGTCTTGATTCGCTTGACGCTGCTG | 0.207
CCGATTAACATCAGGAAGGCCCCTGATGTTAATCGGGTCTTGATTCGCTTGACGCTGCTG | 5.3
CCGATTAACATCAAAAACTACCCTGATGTTAATCGGGTCTTGATTCGCTTGACGCTGCTG | 4.72
CCGATTAACATCAAAAATTCCATTGATGTTAATCGGGTCTTGATTCGCTTGACGCTGCTG | 0.994
CCGATTAACATCAAAGGATTTCCTGATGTTAATCGGGTCTTGATTCGCTTGACGCTGCTG | 1.01
CCGATTAACATCAACGGGAACTCTGATGTTAATCGGGTCTTGATTCGCTTGACGCTGCTG | 2.25
CCGATTAACATCACGAAAAATCCTGATGTTAATCGGGTCTTGATTCGCTTGACGCTGCTG | 0.937
CCGATTAACATCACCTCTCGCGCTGATGTTAATCGGGTCTTGATTCGCTTGACGCTGCTG | 0.426
CCGATTAACATCAAATATTTTCCTGATGTTAATCGGGTCTTGATTCGCTTGACGCTGCTG | 0.432
CCGATTAACATCAGGGACGTCCCTGATGTTAATCGGGTCTTGATTCGCTTGACGCTGCTG | 8.52
CCGATTAACATCAGGAATTGCCATGATGTTAATCGGGTCTTGATTCGCTTGACGCTGCTG | 1.02
CCGATTAACATCAAAGGAAATTCTGATGTTAATCGGGTCTTGATTCGCTTGACGCTGCTG | 0.916
CCGATTAACATCAAGGGAGTCCCTGATGTTAATCGGGTCTTGATTCGCTTGACGCTGCTG | 4.92
CCGATTAACATCAGGGGGGTAACTGATGTTAATCGGGTCTTGATTCGCTTGACGCTGCTG | 4.37
CCGATTAACATCAGGAAAAATACTGATGTTAATCGGGTCTTGATTCGCTTGACGCTGCTG | 0.388
CCGATTAACATCAAGTACAACGGTGATGTTAATCGGGTCTTGATTCGCTTGACGCTGCTG | 0.447
CCGATTAACATCATGTGGTTCTCTGATGTTAATCGGGTCTTGATTCGCTTGACGCTGCTG | -0.38
CCGATTAACATCAGTGAACCACATGATGTTAATCGGGTCTTGATTCGCTTGACGCTGCTG | -0.276
CCGATTAACATCAGAAAATTACATGATGTTAATCGGGTCTTGATTCGCTTGACGCTGCTG | -0.0656

Sequence | binding signal [z-score]
CCGATTAACATCACGGAAACCACTGATGTTAATCGGGTCTTGATTCGCTTGACGCTGCTG | 1.46
CCGATTAACATCACGTACATTCCTGATGTTAATCGGGTCTTGATTCGCTTGACGCTGCTG | 0.0816
CCGATTAACATCAGTATTTTCCATGATGTTAATCGGGTCTTGATTCGCTTGACGCTGCTG | 0.73
CCGATTAACATCAGGCAAGTCCCTGATGTTAATCGGGTCTTGATTCGCTTGACGCTGCTG | 5.74
CCGATTAACATCAAATTTCCCCATGATGTTAATCGGGTCTTGATTCGCTTGACGCTGCTG | 7.31
CCGATTAACATCAGGCGGTAAGGTGATGTTAATCGGGTCTTGATTCGCTTGACGCTGCTG | 0.783
CCGATTAACATCAGGGAGTACCCTGATGTTAATCGGGTCTTGATTCGCTTGACGCTGCTG | 6.66
CCGATTAACATCAGGAGTTTCCATGATGTTAATCGGGTCTTGATTCGCTTGACGCTGCTG | 2.43
CCGATTAACATCAGTTTTTTCCATGATGTTAATCGGGTCTTGATTCGCTTGACGCTGCTG | 0.593
CCGATTAACATCACGGAAAATACTGATGTTAATCGGGTCTTGATTCGCTTGACGCTGCTG | 0.988
CCGATTAACATCAAAAAACCGTTTGATGTTAATCGGGTCTTGATTCGCTTGACGCTGCTG | 0.345
CCGATTAACATCAGGGAACTCCCTGATGTTAATCGGGTCTTGATTCGCTTGACGCTGCTG | 9.76
CCGATTAACATCACGTAAACTCCTGATGTTAATCGGGTCTTGATTCGCTTGACGCTGCTG | 0.17
CCGATTAACATCACGGGAGTTCCTGATGTTAATCGGGTCTTGATTCGCTTGACGCTGCTG | 5.04
CCGATTAACATCAGGAAACTCCATGATGTTAATCGGGTCTTGATTCGCTTGACGCTGCTG | 2.15
CCGATTAACATCATGGTACTTGTTGATGTTAATCGGGTCTTGATTCGCTTGACGCTGCTG | -0.0709
CCGATTAACATCAGTGGTTACCATGATGTTAATCGGGTCTTGATTCGCTTGACGCTGCTG | 0.204
CCGATTAACATCACTGGAATTCCTGATGTTAATCGGGTCTTGATTCGCTTGACGCTGCTG | 1.7
CCGATTAACATCAGGAATTTCTATGATGTTAATCGGGTCTTGATTCGCTTGACGCTGCTG | 1.23
